In PubChem BioAssay AID360 (National Center for Advancing Translational Sciences (NCATS), 2006):
The campaign covered roughly 48,000 compounds. About 550 (1.1%) were called active. Another 4% or so got no clear call; they are omitted. Rule as the data show it: active = potency below about 15 µM; inconclusive = mostly about 16 µM to 33 µM; inactive = weaker than that. Some of the results follow.

target: Lysosomal acid glucosylceramidase (Homo sapiens) (UniProt P04062); experiment: Glucocerebrosidase; conditions: purified enzyme, resorufin glucoside fluorescence (screen aimed at inhibitors), 20 min;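 also: the screen sought inhibitors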
How it was run: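 Compounds titrated against 0.2 nM normal enzyme, 30 uM resorufin beta-D-glucopyranoside substrate, citrate/phosphate buffer with taurocholate and tween-20, pH 5.9. Reaction ran 20 min at room temperature; fluorescence (Ex 548/Em 600) gave AC50.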
Potency is read from the fitted curve at half-maximal effect.

Chain of UniProt P04062 (P04062 whole entry, looked up): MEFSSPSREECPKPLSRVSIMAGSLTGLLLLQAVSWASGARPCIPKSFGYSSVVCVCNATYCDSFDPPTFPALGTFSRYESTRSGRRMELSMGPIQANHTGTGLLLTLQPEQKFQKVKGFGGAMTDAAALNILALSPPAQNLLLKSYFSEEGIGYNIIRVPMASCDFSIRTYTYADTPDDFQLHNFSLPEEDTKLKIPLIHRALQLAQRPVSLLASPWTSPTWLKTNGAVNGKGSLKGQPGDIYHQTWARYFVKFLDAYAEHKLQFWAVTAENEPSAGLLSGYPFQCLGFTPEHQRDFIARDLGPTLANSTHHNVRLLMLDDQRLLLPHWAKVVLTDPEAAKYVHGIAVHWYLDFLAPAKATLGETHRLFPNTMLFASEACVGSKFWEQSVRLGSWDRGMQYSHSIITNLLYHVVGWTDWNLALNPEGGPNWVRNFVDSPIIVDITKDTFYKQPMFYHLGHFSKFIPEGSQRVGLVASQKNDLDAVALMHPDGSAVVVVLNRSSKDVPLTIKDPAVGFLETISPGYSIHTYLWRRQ

Potency, inactive:
O=C(O)CCc1ccc(-c2ccccc2)n1NC(=O)c1ccco1 > 76.9 µM
Cc1nnsc1-c1nc2ccccc2[nH]1 > 76.9 µM
Cc1nc2nc(C)c(CCC(=O)Nc3ccc4c(c3)OCO4)c(C)n2n1 > 76.9 µM
COc1cc(OC)c(C#N)c(S(=O)Cc2ccccc2)c1 (stereo unspecified) > 76.9 µM
CN(C)c1cccc(C(=O)OCC(=O)NCc2ccco2)c1 > 76.9 µM
C=CCSc1[nH]c(=O)cc(C)c1C(N)=O > 76.9 µM
C=CCn1c(SCc2cc(=O)n3ccsc3n2)nc2scc(C3CC3)c2c1=O > 76.9 µM
Nc1nc(-c2ccccc2Br)cs1
O=c1c2[nH]c3ccc(Cl)cc3c2ncn1Cc1ccccn1 > 76.9 µM
c1ccc(Cc2nn3c(Cn4cnc5ccccc54)nnc3s2)cc1 > 76.9 µM
COc1ccc(-n2c(C)cc(C(=O)CSc3nnc(-c4ccoc4C)n3C)c2C)cc1 > 76.9 µM
O=C(CN1CCN(C2CCCCC2)CC1)NCCC1=CCCCC1 > 76.9 µM
CCOc1ccc2nc(NC3=NCN(Cc4ccco4)CN3)nc(C)c2c1 > 76.9 µM
Cc1ccc(-c2noc(-c3ccccc3C(=O)N3CCN(C)CC3)n2)cc1
CN(C(=O)c1ccno1)c1nnc(-c2cnccn2)s1 > 76.9 µM
CC(NC(=O)OC1CCCCC1)N1C(=O)C2C3C=CC(C3)C2C1=O (stereo unspecified) > 76.9 µM
CCOC(=O)c1c(C)c(C(=O)N(C)C2CCCCC2)c(C)n1C > 76.9 µM
OC1(c2ccccc2)C/C(=N\n2cnnc2)C=C1c1ccccc1 (stereo unspecified) > 76.9 µM
CCC(C)(C)n1nnnc1C(c1cccnc1)N1CCCc2ccccc21 (stereo unspecified) > 76.9 µM
COc1cccc(C2C(C(=O)Nc3cccnc3)=C(C)Nc3nnnn32)c1OC (stereo unspecified) > 76.9 µM
c1cncc(-c2nc3ccccc3o2)c1 > 76.9 µM
COc1ccc2c(c1OC)C(=O)N(c1ccc3c(c1)CCC3)C2=O > 76.9 µM
Cc1cc(-n2c(C)cc(C(=O)CN3C(=O)NC4(CCCCC4)C3=O)c2C)no1 > 76.9 µM
CC(C)(O)/C=C1/Oc2ccccc2C1N1CCCCC1 (stereo unspecified) > 76.9 µM
O=C(CSc1nnc(-c2ccc(OC(F)F)cc2)o1)N1CCOCC1 > 76.9 µM
Fc1ccc(CSc2nnc(-c3cnccn3)n2Cc2ccco2)cc1 > 76.9 µM
CCCC1(C(=O)OC)NC(c2ccco2)C2C(=O)N(c3ccc(C)cc3)C(=O)C21 (stereo unspecified) > 76.9 µM
O=S(=O)(c1cccs1)N1CCN(c2ncccn2)CC1 > 76.9 µM
Clc1ccccc1CN1CCc2sccc2C1 > 76.9 µM
COc1cccc(-c2ccc(=O)n(CC(=O)Nc3cc4c(cc3NC(C)=O)OCCO4)n2)c1 > 76.9 µM
CCOC(=O)C1=C(C)Nc2nc(SCC)[nH]c(=O)c2C1c1ccncc1 (stereo unspecified) > 76.9 µM
COC(=O)/C=c1/sc2n(c1=O)CCN=2 > 76.9 µM
O=C(NCn1ccc(=O)[nH]c1=S)c1ccccc1 > 76.9 µM
CCOc1ccc2[nH]c(=O)c(=O)[nH]c2c1
O=C(NCc1ccc2c(c1)OCO2)C1CCCN(S(=O)(=O)c2cccc3nonc23)C1 (stereo unspecified) > 76.9 µM
O=C1c2oc3ccccc3c(=O)c2C(c2cccc(F)c2)N1CCCO (stereo unspecified) > 76.9 µM
COCCNC(=O)C1CCC(Cn2c(=S)[nH]c3ccccc3c2=O)CC1 (stereo unspecified) > 76.9 µM
CCN(CC)c1ccc2cc(C(=O)Nc3ccc(-n4cnnn4)c(OC)c3)c(=O)oc2c1 > 76.9 µM
CCOc1ccc2c(C)c(C(=O)O)oc2c1OCC > 76.9 µM
O=C(NC1(C(F)(F)F)NC(=O)N(Cc2cccnc2)C1=O)c1cccs1 (stereo unspecified) > 76.9 µM
COc1ccc(NC(=O)CCS(=O)(=O)c2ccc(OC)cc2)cc1 > 76.9 µM
CC(=O)NCc1nc2ccccc2n1Cc1ccccc1F > 76.9 µM
CCCOC(=O)c1ccc(Oc2cn[nH]c2-c2ccc(OCC)cc2O)cc1 > 76.9 µM
Cc1cccc(-n2c(CNC(=O)c3ccc(S(=O)(=O)N4CCCC4)cc3)n[nH]c2=S)c1 > 76.9 µM
O=C(c1ccco1)N1CCN(C(=O)c2cnn3cccnc23)CC1 > 76.9 µM
COc1ccc(-c2nn(C)c(=O)c3ccccc23)cc1CNS(C)(=O)=O > 76.9 µM
CS(=O)(=O)N(CC(=O)NCc1ccc2c(c1)OCO2)c1ccc(Cl)cc1 > 76.9 µM
CC(NCC1(N2CCOCC2)CCCCC1)C(=O)N1CCc2ccccc21 (stereo unspecified) > 76.9 µM
CCN1CCN(P2(=O)C=C(c3ccccc3)OC(c3ccccc3)=C2)CC1 > 15.4 µM
CCC(C)(C)n1nnnc1C(c1cc(OC)c(OC)c(OC)c1)N1CCN(c2ccccc2)CC1 (stereo unspecified) > 76.9 µM
CC(C(=O)NCC1CCCO1)N(C(=O)c1snc(C(N)=O)c1N)c1cccc(F)c1 (stereo unspecified) > 76.9 µM
COc1ccc(OCc2nnc(SCC(N)=O)n2-c2ccccc2OC)cc1 > 76.9 µM
COc1cc(C(=O)NCc2nnc(SCC(=O)N3CCCCC3)o2)cc(OC)c1OC > 76.9 µM
COc1ccc(NC(=O)C2=C(C)Nc3ncnn3C2c2ccccc2C(F)(F)F)c(OC)c1 (stereo unspecified) > 76.9 µM
Cn1c(=O)[nH]c(=O)c2c1nc(N1CCNCC1)n2Cc1cccc2ccccc12 > 76.9 µM
CC(C)c1nnc(NC(=O)CCC(=O)N2CCN(C3CCCCC3)CC2)s1 > 76.9 µM
Cc1ccc(C)c(S(=O)(=O)Nc2ccc(S(=O)(=O)Nc3onc(C)c3C)cc2)c1 > 76.9 µM
COc1ccc(Cc2nnc(SCC(=O)N3CCN(c4ccccc4)CC3)o2)cc1 > 76.9 µM
O=S(=O)(CCc1ccccc1)/N=C/c1cccs1 > 76.9 µM
CCC(=O)Nc1ccc(-c2nc(-c3ccccc3)n(CC(=O)N3CCCCC3)n2)cc1 > 76.9 µM
O=c1[nH]n(-c2ncnc3c2cnn3-c2ccccc2)c(=O)c2ccccc12 > 76.9 µM
CCOC(=O)C(C)Oc1ccc(C2NC(=O)NC(C)=C2C(=O)Nc2ccccc2C)cc1 (stereo unspecified) > 76.9 µM
Cc1cc2nc(NC3=NCN(CCN4CCOCC4)CN3)nc(C)c2cc1C > 76.9 µM
Cn1ccnc1SCC(=O)Nc1ccc2c(c1)COC2=O > 76.9 µM
CCCCC(=O)NC1=NC(=O)C(C)(C)S1 > 76.9 µM
COc1ccc(/C=N/n2cnnc2)cc1COc1ccccn1 > 76.9 µM
Cc1nc(NC2=NCN(CCN3CCOCC3)CN2)nc2c(C)cccc12 > 76.9 µM
Cc1ccc(-n2c3c(cc(C(=O)Nc4cccc(C)n4)c2=O)C(=O)CCC3)cc1 > 76.9 µM
O=S(=O)(c1ccccc1)c1nc(-c2ccco2)oc1NCc1ccco1 > 76.9 µM
COc1ccc(CCNC(=O)CN2CCCc3ccccc32)cc1OC > 76.9 µM
Cc1nnc(SCc2ccccc2)n1N > 76.9 µM
CCOc1ccc2nc(NC(=O)c3ccc(S(=O)(=O)N4CCOCC4)cc3)sc2c1 > 76.9 µM
Cn1ncc(C#N)c1/N=C/N1CCCCC1 > 76.9 µM
COC(=O)[C@H](CCSC)NC(=O)Nc1ccc(C(C)C)cc1 > 76.9 µM
CCOC(=O)C1=C(NC#N)OC(C)=C(C)C1c1ccc(O)cc1 (stereo unspecified) > 76.9 µM
COc1ccccc1NS(=O)(=O)c1ccc(NC(=O)CCNC(=O)c2ccco2)cc1 > 76.9 µM
O=C(NC1(C(F)(F)F)NC(=O)N(C2CCCC2)C1=O)C1CC1 (stereo unspecified) > 76.9 µM
COc1ccc(-c2ccc(=O)n(Cc3cc(=O)n4ccccc4n3)n2)cc1 > 76.9 µM
Cn1c(=O)c2c(ncn2CCN(CCO)Cc2ccccc2)n(C)c1=O > 76.9 µM
O=C(CN1CCN(S(=O)(=O)c2ccccc2)CC1)Nc1cccc(C(F)(F)F)c1
O=c1oc2ccccc2cc1-c1cn2cccnc2n1 > 76.9 µM
COc1ccc(OC)c(NC(=O)CSc2nnc(CNc3ccc(C)cc3C)o2)c1 > 76.9 µM
CC1C(=O)CCC1(C(=O)O)c1ccccc1 (stereo unspecified) > 76.9 µM
O=c1[nH]c2cc3c(cc2cc1CN(Cc1nnnn1CC1CCCO1)C1CCCC1)OCO3 (stereo unspecified) > 76.9 µM
CCOC(=O)c1ccc2[nH]c(C)c(CN3CCN(C)CC3)c(=O)c2c1 > 76.9 µM
COC(=O)c1cccc(OCC(O)Cn2ccnc2)c1 (stereo unspecified) > 76.9 µM
CN1C(=O)NC(NC(=O)c2ccncc2)(C(F)(F)F)C1=O (stereo unspecified) > 76.9 µM
CC(=O)Nc1ccc(C(=O)CSc2nnc3scc(-c4ccccc4)n23)cc1 > 76.9 µM
O=C(COc1ccccc1)NCc1ccc2c(c1)OCO2 > 76.9 µM
CCn1c(SCC(N)=O)nc2c1c(=O)n(C)c(=O)n2C > 76.9 µM
Cc1cc(NC(=O)C2CC2)ncc1NC(=O)C12CC3CC(CC(C3)C1)C2 > 76.9 µM
